In the supplement of paper PMC12582362:
Structures can show the parent of a compound that is named as a salt. The whole screen tested about 1,500 compounds, of which about 30 (2%) showed activity.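 How the source made its calls: active = robust z-score below -2; a few such results were not called.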 This is one part of the list.

These compounds were tested on optoTopBP1 Flp-In 293 T-REx (HEK293) cells (assay: light-induced TopBP1 condensate (nuclear foci) count, plate-normalised robust z-score vs non-control wells; higher = more TopBP1 condensates (negative = condensation inhibitor), active = hit call of the paper). Settings: 10 µM; incubation time 2 h.

| Compound | light-induced TopBP1 condensate (z-score) |
| --- | --- |
| COc1cc(NC(C)CCCN)c2ncccc2c1 (stereo unspecified) [Primaquine diphosphate] | inactive: -1.07 |
| CCCCC1(COC(=O)CCC(=O)O)C(=O)N(c2ccccc2)N(c2ccccc2)C1=O [Suxibuzone] | inactive: 0.837 |
| CCCCNc1c(C(=O)OCC)c(C)nc2c1cnn2CC [Tracazolate hydrochloride] | inactive: 0.939 |
| COc1cc(-c2ccc(=O)[nH]n2)ccc1OC(F)F [Zardaverine] | inactive: 1.3 |
| CC/C(=C(/CC)c1ccc(O)cc1)c1ccc(O)cc1 [Diethylstilbestrol] | inactive: -0.692 |
| CC1=C(/C=C/C(C)=C/C=C/C(C)=C\C(=O)O)C(C)(C)CCC1 [Isotretinoin] | inactive: -1.24 |
| CSc1ccc2c(c1)N(CCC1CCCCN1C)c1ccccc1S2 (stereo unspecified) [Thioridazine hydrochloride] | inactive: -0.811 |
| Cc1cc(-c2ccccc2)nnc1NCCN1CCOCC1 [Minaprine dihydrochloride] | inactive: 0.767 |
| NC(N)=Nc1nc(CSCC/C(N)=N/S(N)(=O)=O)cs1 [Famotidine] | inactive: 0.697 |
| CN(C)[C@@H]1C(O)=C(C(N)=O)C(=O)[C@@]2(O)C(O)=C3C(=O)c4c(O)cccc4[C@@](C)(O)[C@H]3[C@H](O)[C@@H]12 [Oxytetracycline dihydrate] | inactive: -0.703 |
| Cc1cc(NS(=O)(=O)c2ccc(N)cc2)nc(C)n1 [Sulfisomidine] | inactive: -0.583 |
| Cc1ccsc1/C=C/C1=NCCCN1C [Morantel tartrate] | inactive: 0.144 |
| CN(C)c1ccc(O)c2c1C[C@H]1C[C@H]3[C@H](N(C)C)C(O)=C(C(N)=O)C(=O)[C@@]3(O)C(O)=C1C2=O [Minocycline hydrochloride] | inactive: -0.51 |
| CCCSS/C(CCO)=C(/C)N(C=O)Cc1cnc(C)nc1N [Prosultiamine] | inactive: -0.237 |
| Nc1nc(NC2CC2)c2ncn([C@H]3C=C[C@@H](CO)C3)c2n1 [Abacavir Sulfate] | inactive: -0.798 |
| CCN(CC)CCNc1ccc(CO)c2sc3ccccc3c(=O)c12 [Hycanthone] | inactive: -0.598 |
| CCOc1ccc2nc3cc(N)ccc3c(N)c2c1 [Ethacridine lactate] | inactive: 0.0605 |
| CNC(C)CCC=C(C)C (stereo unspecified) [Isometheptene mucate] | inactive: 0.384 |
| O=C(COc1ccc(Cl)cc1)N1CCN(Cc2ccc3c(c2)OCO3)CC1 [Fipexide hydrochloride] | inactive: -0.019 |
| CN(Cc1cnc2nc(N)nc(N)c2n1)c1ccc(C(=O)N[C@@H](CCC(=O)O)C(=O)O)cc1 (racemic) [Amethopterin (R,S)] | inactive: 1.13 |
| CC(C)(C)CC(C)(C)c1ccc(O)c(Cc2ccc(Cl)cc2Cl)c1 [Clofoctol] | inactive: 0.817 |
| CCOC(=O)c1ccc(N)cc1 [Benzocaine] | inactive: 0.302 |

| Compound | light-induced TopBP1 condensate (z-score) |
| --- | --- |
| OC(CCCN1CCCCC1)(c1ccccc1)c1ccccc1 [Diphenidol hydrochloride] | inactive: -1.33 |
| CCN(CC)CCOC(=O)C(c1ccccc1)c1ccccc1 [Adiphenine hydrochloride] | inactive: 1.26 |
| C[C@]12CC[C@@H]3c4ccc(OS(=O)(=O)O)cc4CC[C@H]3[C@@H]1CCC2=O [Estropipate] | inactive: 0.596 |
| Cc1ccc(S(=O)(=O)NC(=O)NN2CCCCCC2)cc1 [Tolazamide] | inactive: -1.32 |
| COc1cccc(OC)c1C(=O)N[C@@H]1C(=O)N2[C@@H]1SC(C)(C)[C@@H]2C(=O)O [Methicillin sodium] | inactive: 0.167 |
| C=CCSCC1Nc2cc(Cl)c(S(N)(=O)=O)cc2S(=O)(=O)N1 (stereo unspecified) [Althiazide] | inactive: 0.873 |
| c1ccc(CN(CC2=NCCN2)c2ccccc2)cc1 [Antazoline hydrochloride] | inactive: -0.424 |
| CN(C)CC/C=C1/c2ccccc2COc2ccc(CC(=O)O)cc21 [Olopatadine hydrochloride] | inactive: 0.52 |
| CC(C(=O)O)c1ccc(C(=O)c2ccccc2)s1 (stereo unspecified) [Tiaprofenic acid] | inactive: 0.311 |
| NC(=O)NS(=O)(=O)c1ccc(N)cc1 [Sulfacarbamide] | inactive: 0.466 |
| CC(=O)N(CC(O)CN(C(C)=O)c1c(I)c(C(=O)NCC(O)CO)c(I)c(C(=O)NCC(O)CO)c1I)c1c(I)c(C(=O)NCC(O)CO)c(I)c(C(=O)NCC(O)CO)c1I (stereo unspecified) [Iodixanol] | inactive: 0.289 |
| C#C[C@]1(O)CC[C@H]2[C@@H]3CCC4=CC(=O)CC[C@@H]4[C@H]3CC[C@@]21CC [Norgestrel-(-)-D] | inactive: -0.564 |
| N=C(N)NCCN1CCCCCCC1 [Guanethidine sulfate] | inactive: -0.799 |
| CC1(C)[C@@H](OC(=O)CCC(=O)O)CC[C@]2(C)[C@H]3C(=O)C=C4[C@@H]5C[C@@](C)(C(=O)O)CC[C@]5(C)CC[C@@]4(C)[C@]3(C)CC[C@@H]12 [Carbenoxolone disodium salt] | inactive: -0.148 |
| CC(CN(C)C)CN1c2ccccc2Sc2ccccc21 (stereo unspecified) [Trimeprazine tartrate] | inactive: 0.00204 |
| C=CCOC(Cn1ccnc1)c1ccc(Cl)cc1Cl (stereo unspecified) [Enilconazole] | inactive: 0.833 |
| C[C@]1(Cn2ccnn2)[C@H](C(=O)O)N2C(=O)C[C@H]2S1(=O)=O [Tazobactam] | inactive: 0.146 |
| CC(CN(C)C)C(C)(O)Cc1ccc(Cl)cc1 (stereo unspecified) [Clobutinol hydrochloride] | inactive: 0.904 |
| CC[C@@H](CO)NCCN[C@@H](CC)CO [Ethambutol dihydrochloride] | inactive: 1.17 |
| CC(=O)OCC(=O)[C@@]1(OC(C)=O)[C@@H](C)C[C@H]2[C@@H]3C[C@H](F)C4=CC(=O)C=C[C@]4(C)[C@@]3(F)[C@@H](O)C[C@@]21C [Diflorasone Diacetate] | inactive: -0.789 |
| CCN(CC)CCOCCOC(=O)C(CC)(CC)c1ccccc1 [Oxeladin citrate] | inactive: 0.047 |
| CCCOc1ccc(C(=O)OCCN(CC)CC)cc1N [Proparacaine hydrochloride] | inactive: -0.35 |

| Compound | light-induced TopBP1 condensate (z-score) |
| --- | --- |
| NC1CCN(c2nc3c(cc2F)c(=O)c(C(=O)O)cn3-c2ccc(F)cc2F)C1 (stereo unspecified) [Tosufloxacin hydrochloride] | inactive: 0.531 |
| COC(=O)Nc1nc2cc([S+]([O-])c3ccccc3)ccc2[nH]1 (stereo unspecified) [Oxfendazol] | inactive: 0.733 |
| COc1ccccc1OCC(O)COC(N)=O (stereo unspecified) [Methocarbamol] | inactive: 0.0481 |
| Cc1cc(N)c2ccccc2[n+]1CCCCCCCCCC[n+]1c(C)cc(N)c2ccccc21 [Dequalinium dichloride] | inactive: 0.523 |
| Nc1ccn([C@@H]2CS[C@H](CO)O2)c(=O)n1 [Lamivudine] | inactive: 0.279 |
| CO/N=C(\C(=O)N[C@@H]1C(=O)N2C(C(=O)OC(C)OC(C)=O)=C(COC(N)=O)CS[C@H]12)c1ccco1 (stereo partly specified) [Cefuroxime axetil] | inactive: -0.531 |
| NC(=O)[C@@H]1CCCN1C(=O)[C@H](Cc1c[nH]cn1)NC(=O)[C@@H]1CCC(=O)N1 [Thyrotropin-Releasing Hormone] | inactive: 0.478 |
| CCOC(=O)[C@@](C)(N)Cc1ccc(O)c(O)c1 [Methyldopate hydrochloride] | inactive: -0.519 |
| O=C(c1ccccc1)c1ccc2n1CCC2C(=O)O (stereo unspecified) [Ketorolac tromethamine] | inactive: -0.884 |
| COc1c(N2CCNC(C)C2)c(F)cc2c(=O)c(C(=O)O)cn(C3CC3)c12 (stereo unspecified) [Gatifloxacin] | inactive: -0.00416 |
| CN1Cc2c(N)cccc2C(c2ccccc2)C1 (stereo unspecified) [Nomifensine maleate] | inactive: 0.0656 |
| CCN[C@@H]1C[C@H](N)[C@@H](O[C@H]2OC(CN)=CC[C@H]2N)[C@H](O)[C@H]1O[C@H]1OC[C@](C)(O)[C@H](NC)[C@H]1O [Netilmicin sulfate] | inactive: 0.0588 |
| CC(C)(O)c1ccccc1CC[C@@H](SCC1(CC(=O)O)CC1)c1cccc(/C=C/c2ccc3ccc(Cl)cc3n2)c1 [Montelukast] | inactive: 0.412 |
| c1ccc(CNc2ncnc3nc[nH]c23)cc1 [Aminopurine, 6-benzyl] | inactive: 0.088 |
| Oc1c(Br)cc(Br)c2cccnc12 [Broxyquinoline] | inactive: 0.239 |
| CC(=O)[C@@]12O[C@](C)(c3ccccc3)O[C@@H]1C[C@H]1[C@@H]3CCC4=CC(=O)CC[C@]4(C)[C@H]3CC[C@@]12C [Algestone acetophenide] | inactive: -1.65 |
| C[C@]12CCC(=O)C=C1CC[C@@H]1[C@@H]2C(=O)C[C@@]2(C)[C@H]1CC[C@]2(O)C(=O)CO [Cortisone] | inactive: -0.797 |
| COC(=O)[C@H](c1ccccc1Cl)N1CCc2sccc2C1 [Clopidogrel] | inactive: -0.757 |
| COCCCC/C(=N\OCCN)c1ccc(C(F)(F)F)cc1 [Fluvoxamine maleate] | inactive: -0.179 |
| C[C@H](N[C@@H](CCc1ccccc1)C(=O)O)C(=O)N1CCC[C@H]1C(=O)O [Enalaprilat dihydrate] | inactive: -0.886 |
| CN(C)[C@@H]1C(O)=C(C(N)=O)C(=O)[C@@]2(O)C(O)=C3C(=O)c4c(O)cccc4[C@@](C)(O)[C@H]3C[C@@H]12 [Tetracycline hydrochloride] | inactive: 0.0489 |
| Cc1ccc(N(CC2=NCCN2)c2cccc(O)c2)cc1 [Phentolamine hydrochloride] | inactive: -0.948 |
